The record followed here is the supplement of paper PMC10600219.

Counter-ions that a name gives are not always drawn. The full ranking holds about 2,800 compounds; the median of “cell viability relative to vehicle” is about 1.1, and the lowest 2% start at about 0.19. The list shows a part of the results.

The subject of this test is NCI-H2228 parental. Nature of the test: cell viability relative to vehicle (fraction of vehicle); NCI-H2228 is an ALK-positive lung cancer line and DTP means drug-tolerant persister; higher = less growth inhibition. The conditions noted are these: 100 nM; treatment time 6 days. The gist of the method: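 Parental NCI-H2228 cells and drug-tolerant persister cells (made with 1000 nM of a targeted drug for 13 days) were seeded in 384-well plates. The next day, the 3114-agent TargetMol anti-cancer compound library was added at 100 nM, with DMSO as vehicle. After 6 days, ATP was read with the CellTiter-Glo 3D Cell Viability Assay. Each value is cell viability relative to vehicle-treated cells.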
Consider `CCOc1cc(CC(=O)N[C@@H](CC(C)C)c2ccccc2N2CCCCC2)ccc1C(=O)O` [Repaglinide], for which the cell viability is 1.02.

As to `O=C(O)C(Cc1c[nH]c2ccccc12)N1C(=O)c2ccccc2C1=O` (stereo not given), the cell viability came out at 1.05. The result for `C#C[C@]1(O)CC[C@H]2[C@@H]3CCc4cc(O)ccc4[C@H]3CC[C@@]21C` [Ethynyl estradiol] reads 1.24; that for `COc1cc(F)c(F)c(Nc2ccc(I)cc2F)c1NS(=O)(=O)C1(C[C@H](O)CO)CC1` [Refametinib], 1.01; that for `O=C(O)c1ccc(N2C(=O)/C(=C\c3ccc(-c4ccc([N+](=O)[O-])cc4)o3)C=C2c2ccccc2)cc1` [4E1rcat], 1.11. `CC(C)n1cnc2c(-c3cnc(N)nc3)nc(N3CCOCC3)nc21` [Desmethyl-VS-5584]: the cell viability was found to be 0.867. With `Cc1nc2cccc(N)c2c(=O)n1C1CCC(=O)NC1=O` (stereo not given) [Avadomide] the figure was 1.18; with `CC#CC(=O)Nc1ccc2ncnc(Nc3cccc(Br)c3)c2c1`, 0.962; with `O=S(=O)(c1ccccc1)N(CC(F)(F)F)c1ccc(C(O)(C(F)(F)F)C(F)(F)F)cc1`, 0.943.

In the case of `O=C(O)Cn1c2c(c3cc(F)ccc31)CN(C(=O)c1cccc3ccccc13)CC2` [Setipiprant], the cell viability came to 1.18. Turning to `CC(C)(CCCCCC(O)CCCCCC(C)(C)C(=O)O)C(=O)O`, the cell viability was found to be 1.1. For `Nc1nc2c(ncn2COCCO)c(=O)[nH]1` [Aciclovir], the cell viability amounted to 1.33. For `Cc1cc(O)c(C(=O)CCC(C)C)c(=O)o1` [Pogostone], the cell viability came to 1.04.

Consider `COc1ccc(S(=O)(=O)Nc2c(C)cc(C)cc2C)cc1`, for which the cell viability was 1.04.

`Oc1ccc(-c2c(-c3ccccc3)nn3c(C(F)(F)F)cc(C(F)(F)F)nc23)cc1`: the cell viability worked out at 0.97. Consider `COc1ccc2[nH]c([S@@+]([O-])Cc3ncc(C)c(OC)c3C)nc2c1` [Esomeprazole Magnesium], for which the cell viability came out at 1.21.

For the molecule `CC(C)NCC(O)c1ccc(O)c(O)c1` (stereo not given) [Isoprenaline hydrochloride], the cell viability is 0.859.

On to `CS(=O)(=O)N1CCN(Cc2cc3nc(-c4cccc5[nH]ncc45)nc(N4CCOCC4)c3s2)CC1` [Pictilisib], for which the cell viability was found to be 0.869. For `COc1ncnc(NS(=O)(=O)c2ccc(N)cc2)c1OC` [Sulfadoxine], the cell viability is 1.2. Turning to `Nc1nc2cc(-c3ccc4ncc(C(=O)N5CCOCC5)n4c3)ccc2o1` [Serabelisib], the cell viability amounted to 1.11. Consider `COc1c(N2C[C@@H]3CCCN[C@@H]3C2)c(F)cc2c(=O)c(C(=O)O)cn(C3CC3)c12` [Moxifloxacin hydrochloride], for which the cell viability was determined as 1.02. For the molecule `CC(C)(C)c1ccc(C(=O)NC(=S)Nc2ccc(N)cc2)cc1` [Tenovin3], the cell viability stood at 0.844. For `CCc1ccc(-c2nc(CSCC(=O)NCCc3ccccc3)c(C)o2)cc1`, the cell viability was found to be 1.1.

On to `Cc1ccc2nc(CN(CCN(Cc3nc4ccc(C)cc4[nH]3)Cc3nc4ccc(C)cc4[nH]3)Cc3nc4ccc(C)cc4[nH]3)[nH]c2c1`, for which the cell viability was 1.02. On to `N[C@@H](Cc1c[nH]c2ccccc12)C(=O)O` [L-Tryptophan], for which the cell viability stood at 1.15. Take `Nc1c(S(=O)(=O)c2ccccc2)c2nc3ccccc3nc2n1-c1ccc(F)cc1`: the cell viability came to 0.984.

As to `Cc1ncc(-c2ccnc(Nc3ccc(S(C)(=O)=O)cc3)n2)n1C(C)C`, the cell viability was determined as 0.785. Regarding `Cc1c(NC(=O)c2cccnc2)c(=O)n(-c2ccccc2)n1C` [Nifenazone], the cell viability is 1.

In the case of `N#Cc1ccc(-c2csc(NN=C3CCCC3)n2)cc1` [Remodelin hydrobromide], the cell viability was found to be 1.07. Consider `O=C(/C=C/c1ccc(O)cc1)c1ccc(O)cc1O` [Isoliquiritigenin], for which the cell viability is 1.21.

With `CS(=O)(=O)OCCCCOS(C)(=O)=O` [Busulfan], the cell viability was 0.927. Turning to `O=C(Nc1ccccc1)C12CC1C(=NO)c1ccccc1O2` (stereo not given), the cell viability came out at 1.02. Take `N#CCNC(=O)c1ccc(-c2ccnc(Nc3ccc(N4CCOCC4)cc3)n2)cc1` [Momelotinib]: the cell viability is 0.984. Regarding `Cc1ccc(C(=O)Nc2ccc(Oc3cc4cnn(C)c4cc3-c3cn[nH]c3)c(F)c2)c(=O)n1-c1ccc(F)cc1` [Merestinib], the cell viability was 1.16. Turning to `OCc1c[nH]c2ccccc12` [Indole-3-carbinol], the cell viability amounted to 1.11. As to `CC(C)(CO)c1cc2cc(NC(=O)C3(c4ccc5c(c4)OC(F)(F)O5)CC3)c(F)cc2n1C[C@@H](O)CO`, the cell viability was 1.12.

Take `CN1C(=O)CC[C@H]1c1cccnc1` [(-)-Cotinine]: the cell viability was found to be 1.13. For the molecule `Cc1c(CN2CCN(C(=O)[C@H](C)O)CC2)sc2c(N3CCOCC3)nc(-c3cnc(N)nc3)nc12` [Apitolisib], the cell viability was 0.524. Turning to `CN1CCc2c(c3ccccc3n2Cc2ccc(C(=O)NO)cc2)C1` [Tubastatin A HCl], the cell viability was 1.02. For the molecule `Oc1ccc(C(c2c[nH]c3ccccc23)c2c[nH]c3ccccc23)cc1`, the cell viability worked out at 1.06. As for `CC[C@@H]1C(=O)OC[C@@H]1Cc1cncn1C` [Pilocarpine nitrate], the cell viability stood at 1.04. With `CC[C@@H]1C(=O)OC[C@@H]1Cc1cncn1C` [(+)-Pilocarpine hydrochloride], the cell viability stood at 1.14. With `COc1nc(OCc2cccc(-c3ccccc3)c2C)ccc1CNCCNC(C)=O` [PD1-PDL1 inhibitor 2], the cell viability was found to be 1.11. `CNc1cc(-c2cccc(Cl)c2Cl)nc(N)n1` [TH287 hydrochloride]: the cell viability is 1.09. For the molecule `CCC(C)(Oc1ccc(C2(c3ccc(OC(C)(CC)C(=O)O)cc3)CCCCC2)cc1)C(=O)O` (stereo not given) [Clinofibrate], the cell viability turned out to be 1.12. Regarding `COc1ccc(S(=O)(=O)N[C@@H](CNc2nc(C)nc(N3CCC(c4ccc5c(n4)NCCC5)CC3)c2C)C(=O)O)cc1`, the cell viability is 0.705. With `CC(C)=CCC(OC(=O)C=C(C)C)C1=CC(=O)c2c(O)ccc(O)c2C1=O` (stereo not drawn) [beta, beta-dimethylacrylshikonin] the figure was 1.03. As to `COc1cc2nccc(Oc3ccc(NC(=O)NC4CC4)c(Cl)c3)c2cc1C(N)=O` [Lenvatinib], the cell viability was 1.17. With `c1nc2c(NC3CCCCC3)nc(Nc3ccc(N4CCOCC4)cc3)nc2[nH]1` [Reversine], the cell viability was found to be 1.02. For the molecule `CC(=O)c1cc2c(o1)C(=O)c1ccccc1C2=O` [Napabucasin], the cell viability was 0.953.

In the case of `CC(=O)c1ccc(O)c(O)c1` [3',4'-Dihydroxyacetophenone], the cell viability came out at 1.13. As to `CCN(CC)CC(=O)Nc1c(C)cccc1C` [Xylocaine], the cell viability came out at 1.09. Consider `c1ccc2c(CC3=NCCN3)cccc2c1` [Naphazoline hydrochloride], for which the cell viability was determined as 1.12. As for `COc1cc(N2CCN(C)CC2)ccc1Nc1ncc2c(n1)N(C)c1ccccc1C(=O)N2`, the cell viability turned out to be 0.997. The result for `O=c1oc2c(O)c(O)cc3c(=O)oc4c(O)c(O)cc1c4c23` [Ellagic acid] reads 1.12.

In the case of `CC(C)COc1ccc(CNC(=O)N(Cc2ccc(F)cc2)C2CCN(C)CC2)cc1` [Pimavanserin], the cell viability stood at 1.16.

Regarding `CC(C)COc1ccc(CNC(=O)N(Cc2ccc(F)cc2)C2CCN(C)CC2)cc1` [Pimavanserin tartrate], the cell viability came to 1.13.

With `CN(c1ccccc1CNc1nc(Nc2ccc3c(c2)CC(=O)N3)ncc1C(F)(F)F)S(C)(=O)=O`, the cell viability turned out to be 1.16. On to `S=C(S)N1CCCC1` [Pyrrolidinedithiocarbamate ammonium], for which the cell viability amounted to 1.17.

With `Cc1ccc(S(=O)(=O)Cc2nc(-c3ccc(C(=O)NCc4cccnc4)cc3)oc2C)cc1`, the cell viability was 0.875. Regarding `CC/C(=C(\c1ccc(O)cc1)c1ccc(OCCNC)cc1)c1ccccc1` [(E/Z)-Endoxifen], the cell viability stood at 1.17. With `CCn1cc(C(=O)O)c(=O)c2c(N)c(F)c(NC3CCCCC3)cc21`, the cell viability stood at 1.16. For the molecule `COc1cc(-c2oc3cc(O)cc(O)c3c(=O)c2O)ccc1O` [Isorhamnetin], the cell viability amounted to 1.13. Consider `Cc1cc(Cn2nnc3c(-c4ccco4)nc(N)nc32)ccc1N` [Vipadenant], for which the cell viability amounted to 1.13.

Regarding `CONC(=O)Nc1ccc(-c2sc3c(c2CN(C)C)c(=O)n(-c2ccc(OC)nn2)c(=O)n3Cc2c(F)cccc2F)cc1` [Relugolix], the cell viability stood at 1.05. Turning to `COc1cccc2c1C(=O)c1c(O)c3c(c(O)c1C2=O)C[C@@](O)(C(C)=O)C[C@@H]3O[C@H]1C[C@H](N)[C@H](O)[C@H](C)O1` [Daunorubicin hydrochloride], the cell viability stood at 0.263.

Consider `CNC(=O)c1cc(Oc2ccc(NC(=O)Nc3ccc(Cl)c(C(F)(F)F)c3)cc2)ccn1` [Sorafenib], for which the cell viability was 1.05. The result for `CNC(=O)c1cc(Oc2ccc(NC(=O)Nc3ccc(Cl)c(C(F)(F)F)c3)cc2)ccn1` [Sorafenib tosylate] reads 1.16. With `CNC(=O)c1ccccc1Nc1cc(Nc2ccc(N3CCOCC3)cc2OC)ncc1C(F)(F)F` the figure was 0.783. In the case of `OCc1ccccc1O[C@@H]1O[C@H](CO)[C@@H](O)[C@H](O)[C@H]1O` [Salicoside], the cell viability came to 1.09. As to `C=CC1=C(C(=O)O)N2C(=O)[C@@H](NC(=O)/C(=N\O)c3csc(N)n3)[C@H]2SC1` [Cefdinir], the cell viability was 1.13. In the case of `CC(=O)NS(=O)(=O)c1ccc(N)cc1` [Sulfacetamide sodium salt hydrate], the cell viability came out at 1.1.

Turning to `Cc1cn([C@H]2C=C[C@@H](CO)O2)c(=O)[nH]c1=O` [Stavudine], the cell viability turned out to be 1.3. As to `C=C1CC[C@@H]2[C@](C)(CO)[C@H](O)CC[C@@]2(C)[C@@H]1C/C=C1/C(=O)OC[C@H]1O` [Andrographolide], the cell viability is 1.02. With `Cc1c(-c2cnccn2)ssc1=S` [Oltipraz], the cell viability amounted to 1.06. Turning to `COc1ccc(-n2c(SCCCN3C(=O)c4cccc5cccc(c45)C3=O)nnc2-c2ccncc2)cc1`, the cell viability is 0.744. For `C[C@@H]1C[C@H]2[C@@H]3CCC4=CC(=O)C=C[C@]4(C)[C@@]3(F)[C@@H](O)C[C@]2(C)[C@@]1(O)C(=O)COP(=O)(O)O` [Dexamethasone Sodium Phosphate], the cell viability was 0.778.

As for `Cc1cccc(CC(=O)N2CCc3c2ccc(-c2cn(C)c4ncnc(N)c24)c3F)n1`, the cell viability worked out at 1.08.

Turning to `CCn1c2ccccc2c2cc(CNCc3ccccc3OC)ccc21` [HLCL-61 hydrochloride], the cell viability worked out at 1.15. `CC[C@H](CO)Nc1nc(NCc2ccccc2)c2ncn(C(C)C)c2n1` [Roscovitine]: the cell viability is 0.932.
